Laboratory results as given in PubChem BioAssay AID485294 (National Center for Advancing Translational Sciences (NCATS), 2010).
In all, about 370,000 compounds went through this assay and about 150 (0.041%) were called active. The inconclusive results got no clear call from the source; some entries with a clear call stand among them for comparison. The call rests on the fitted dose curve; in most records, active means well fitted inhibition curve with a large enough effect; inconclusive means small, poorly fitted or top-dose-only effect; inactive means flat fitted curve, though single readings scatter. No potency is given beside an inconclusive call; the fits are too rough.
Further: nearly all actives have a fitted effect of over 25% in size.
Potency means the concentration at half of the fitted maximal effect; tags describe the fitted curve by direction and shape.

The compounds below were run against Beta-lactamase (Escherichia coli (strain K12)) (UniProt P00811) (assay: qHTS Inhibitors of AmpC Beta-Lactamase (assay with detergent)). Settings: AmpC hydrolysis of nitrocefin, absorbance 480 nm, 0.01% Triton; series mostly up to 114 µM.
UniProt P00811, sequence (P00811 whole entry, looked up): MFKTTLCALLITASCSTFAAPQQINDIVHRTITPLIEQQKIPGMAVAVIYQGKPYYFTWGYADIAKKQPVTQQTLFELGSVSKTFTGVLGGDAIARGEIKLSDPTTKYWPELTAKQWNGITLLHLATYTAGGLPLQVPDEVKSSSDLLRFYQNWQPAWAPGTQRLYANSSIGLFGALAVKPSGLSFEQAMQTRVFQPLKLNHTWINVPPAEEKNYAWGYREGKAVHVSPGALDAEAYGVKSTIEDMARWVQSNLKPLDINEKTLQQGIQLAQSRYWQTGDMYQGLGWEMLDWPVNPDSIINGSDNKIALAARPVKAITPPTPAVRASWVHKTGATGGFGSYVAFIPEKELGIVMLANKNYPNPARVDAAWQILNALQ
Method in brief: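 AmpC (5.3 nM in the dispensed reagent) in 20 mM phosphate pH 7.0 with 0.01% (detergent screen) or 0.0001% Triton X-100 was preincubated with compounds for 15 min at room temperature. Nitrocefin was then added from an 800 uM solution, and hydrolysis was followed at 480 nm.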
In the case of `COc1cc(C=O)ccc1OCCOCCOc1ccccc1Cl`, the Potency was inconclusive [inhibitor, partial curve, poor fit]. In the case of `CC(C)CCNC(=O)C12CN(Cc3ccccc3)CC1C(c1ccc([N+](=O)[O-])cc1)=NO2` (stereo unspecified), the Potency was “inactive”. `COc1ccc(NC(=O)c2cccc(Oc3ccc([N+](=O)[O-])cc3Cl)c2)cc1` was tested, and the Potency was inconclusive [inhibitor, full curve]. `COCCNC(=O)NC(=O)COC(=O)C12CC3CC(CC(NC(C)=O)(C3)C1)C2` was tested, and the Potency was inconclusive [inhibitor, partial curve, poor fit]. In the case of `O=C(COc1ccccc1)N1c2ccccc2Sc2ccccc21`, the Potency was “inactive”. In the case of `COc1ccc(-c2nc3c(n2O)CCC/C3=N\O)cc1`, the Potency was inconclusive [inhibitor, full curve, poor fit]. For `Cc1cc(C(=O)OC(C(=O)Nc2ccc(C)c(Cl)c2)c2ccccc2)c(C)o1` (stereo unspecified), the Potency was inconclusive [inhibitor, single point]. For `Cc1cc(OCC(=O)N(C)Cc2ccccc2)ccc1Br`, the Potency was inconclusive [inhibitor, partial curve, poor fit]. In the case of `COc1cc(CO)cc(Br)c1OCC(=O)Nc1cccc2ccccc12`, the Potency was inconclusive [inhibitor, full curve]. `CCCS(=O)(=O)Nc1c(OC)ccc2c1c(C(=O)OCC)c(C)n2C` was tested, and the Potency was inconclusive [inhibitor, full curve, poor fit]. `Cc1cccc2c1nc(-c1ccccc1)n1nnnc21` was tested, and the Potency was inconclusive [inhibitor, full curve, poor fit]. With `OC(c1cccs1)c1nccc2ccccc12` (stereo unspecified) the Potency was inconclusive [inhibitor, full curve, poor fit]. With `COc1ccc(NC(=O)C2CCN(c3ncnc4c3nc3n4CCCCC3)CC2)c(OC)c1` the Potency was inconclusive [inhibitor, partial curve, poor fit]. For `CCOC(=O)Cc1csc(NC(=O)CN(C)S(=O)(=O)c2ccc3c(c2)CCC(=O)N3)n1`, the Potency was inconclusive [inhibitor, full curve, poor fit]. `CCOC(=O)C1CCN(Cc2cn[nH]c2-c2ccccc2)CC1` was tested, and the Potency was inconclusive [inhibitor, full curve, poor fit]. For `COc1ccccc1NC(=S)NNC(=O)c1c(Cl)c(C)nn1C`, the Potency was inconclusive [inhibitor, full curve, poor fit]. `CC1(C)Cc2c(C#N)c(SCC(=O)c3ccccc3)nc(N3CCOCC3)c2CS1` was tested, and the Potency was inconclusive [inhibitor, full curve]. With `O=[N+]([O-])c1ccccc1S(=O)(=O)N1CCN(Cc2ccc3c(c2)OCO3)CC1` the Potency was inconclusive [inhibitor, full curve, poor fit]. In the case of `CCOc1ccc(S(=O)(=O)N2CCCC(C(=O)N3CCCC3)C2)cc1` (stereo unspecified), the Potency was inconclusive [inhibitor, full curve, poor fit]. In the case of `Cc1ccc2[nH]c(=O)c(CN(CC3CCCO3)S(=O)(=O)c3cccc4nsnc34)cc2c1` (stereo unspecified), the Potency was “inactive”. In the case of `CCOc1cc(C=O)ccc1OCCSc1ccc(Cl)cc1`, the Potency was inconclusive [inhibitor, full curve, poor fit]. For `CCc1c(C#N)sc(C(N)=O)c1CC`, the Potency was inconclusive [inhibitor, partial curve]. In the case of `COc1cc2c(cc1OC)C(c1ccccc1)N(C(=O)CSCC(=O)O)CC2` (stereo unspecified), the Potency was inconclusive [inhibitor, full curve]. For `Cn1c(=O)c2nc(SCC(=O)Nc3cc(Cl)ccc3Cl)n(C)c2n(C)c1=O`, the Potency was “inactive”. `Cc1cc(C)c(S(=O)(=O)N2CCOC2CNC(=O)C(=O)NCc2ccncc2)c(C)c1` (stereo unspecified) was tested, and the Potency was inconclusive [inhibitor, single point]. With `CCC(C)c1ccc(NC(=S)NCc2cccs2)cc1` (stereo unspecified) the Potency was “inactive”. For `CCNc1nc(-c2ccc(OC(F)F)cc2)c(C)s1`, the Potency was “inactive”. `CC12CN3CN(C1)CC(C)(C3)C2=NO` was tested, and the Potency was inconclusive [inhibitor, full curve]. `CCOc1ccc(/C=C/c2c([N+](=O)[O-])c(=O)n(C)c(=O)n2C)cc1` was tested, and the Potency was “inactive”. With `CC(=O)Nc1ccc(NC(=O)C(C)Oc2ccccc2F)cc1` (stereo unspecified) the Potency was inconclusive [inhibitor, full curve, poor fit]. With `COc1ccc(COc2cc(-c3cccc(OC)c3)nc3ccc(NC(=O)c4cccnc4)cc23)cc1` the Potency was “inactive”. `CC1=CC(c2ccc(Cl)cc2)n2nc(N3C(=O)CCC3=O)nc2N1` (stereo unspecified) was tested, and the Potency was “inactive”. With `N#CCCN1CCN(S(=O)(=O)c2ccc(S(=O)(=O)NCc3ccccc3)cc2)CC1` the Potency was inconclusive [inhibitor, full curve]. In the case of `O=C(NCCN1CCOCC1)c1cc2ccccc2oc1=O`, the Potency was “inactive”. For `CCOC(=O)C1=NN(C(C)=O)C2(CC(=O)N(c3cccc(C)c3)C2=O)C1` (stereo unspecified), the Potency was inconclusive [inhibitor, partial curve, poor fit]. For `CCNC(=S)N(CCc1c(C)[nH]c2ccc(C)cc12)Cc1cccnc1`, the Potency was “inactive”. `O=C1CC(C(=O)Nc2ccc(F)c(Cl)c2)N=C(N2CCCCC2)N1` (stereo unspecified) was tested, and the Potency was inconclusive [inhibitor, partial curve, poor fit]. For `Cc1ccc(OCC(O)CNC2CCCC2)cc1C` (stereo unspecified), the Potency was “inactive”. For `COc1ccc(NC(=O)CNC(=O)CC23CC4CC(CC(C4)C2)C3)c(OC)c1`, the Potency was inconclusive [inhibitor, full curve]. For `CCOC(=O)c1ccc(-n2c(CN3CCN(CC)CC3)nc3ccc([N+](=O)[O-])cc3c2=O)cc1`, the Potency was “inactive”. In the case of `Cc1ccc(NC(=S)NC2CCSc3ccccc32)cc1C` (stereo unspecified), the Potency was “inactive”. With `COCCNC(=O)C1CC(c2ccccc2[N+](=O)[O-])=NO1` (stereo unspecified) the Potency was inconclusive [inhibitor, partial curve, poor fit]. With `Cc1cccc(C)c1NC(=O)Cn1nnc(-c2ccc(N3CCOCC3)cc2)n1` the Potency was inconclusive [inhibitor, full curve, poor fit]. With `NC(=O)C1CCN(C(=O)COc2ccc3c(c2)oc(=O)c2ccccc23)CC1` the Potency was inconclusive [inhibitor, partial curve, poor fit]. In the case of `Cc1cc(N2CCN(c3ccccc3Cl)CC2)n2cc(-c3ccccc3)nc2n1`, the Potency was inconclusive [inhibitor, full curve, poor fit]. With `COC(=O)c1sc(NC(=S)NNC(=O)c2c(Br)c(C)nn2C)c(C(=O)OC)c1C` the Potency was inconclusive [inhibitor, full curve, poor fit]. In the case of `CCOP(=O)(OCC)c1nc(-c2ccc(F)cc2)oc1NCc1ccccc1`, the Potency was inconclusive [inhibitor, single point]. In the case of `CCOc1nc2ccccc2nc1NS(=O)(=O)c1ccccc1`, the Potency was inconclusive [inhibitor, full curve, poor fit]. `CCSc1nnc(NC(=O)C2CC=CCC2C(=O)O)s1` (stereo unspecified) was tested, and the Potency was inconclusive [inhibitor, full curve]. `CCCc1cc2c(cc1NC(=O)c1ccc(Br)cc1)OCO2` was tested, and the Potency was inconclusive [inhibitor, full curve, poor fit]. `COc1ccc(Cn2c(C3CC3)nc3ccc(NC(C)=O)cc3c2=O)cc1` was tested, and the Potency was inconclusive [inhibitor, full curve, poor fit]. `O=C(CSCC(=O)Nc1ccccc1)N/N=C/c1c(O)ccc2ccccc12` was tested, and the Potency was “inactive”. With `COc1cc(NC(=O)c2cc3ccccc3o2)ccc1NC(=O)c1ccco1` the Potency was “inactive”. `CC(C)c1ccc(/C=N/NC(=O)c2cccc(Cl)c2)cc1` was tested, and the Potency was “inactive”. In the case of `COc1cccc(CC2(CO)CCCN(Cc3ccccc3Cl)C2)c1` (stereo unspecified), the Potency was inconclusive [inhibitor, partial curve, poor fit]. For `CCCN(CCC)C1CCc2ccc(O)cc2C1` (stereo unspecified), the Potency was inconclusive [inhibitor, full curve, poor fit]. In the case of `COc1ccc(NC(=O)N2CCC(C(=O)c3ccc(F)cc3)CC2)cc1`, the Potency was inconclusive [inhibitor, full curve, poor fit]. In the case of `O=C(/C(N=Nc1cccc([N+](=O)[O-])c1)=C(/O)c1ccc(Br)cc1)C(F)(F)F`, the Potency was “inactive”. `Cc1ccc(-n2ncc(-c3nnc(SCC(=O)NC4CCCC4)o3)c2N)cc1C` was tested, and the Potency was inconclusive [inhibitor, partial curve, poor fit]. In the case of `C=CCn1c(SCC(=O)NC2CCCCC2)nc2ccccc2c1=O`, the Potency was inconclusive [inhibitor, full curve]. With `COC(=O)c1ccc2[nH]c3cccc(/C(=C/c4ccccc4)c4ccccc4)c3c2c1` the Potency was inconclusive [inhibitor, full curve, poor fit]. For `O=C(O)c1cc(S(=O)(=O)N2CCCC2)ccc1Br`, the Potency was inconclusive [inhibitor, partial curve, poor fit]. With `CC(=O)c1cccc(NC(=O)C2CCN(S(=O)(=O)c3ccc(F)cc3)CC2)c1` the Potency was inconclusive [inhibitor, full curve, poor fit]. In the case of `Cc1ccc(C)c(N2CCN(S(=O)(=O)c3ccc4oc(=O)c5ncn(C)c5c4c3)CC2)c1`, the Potency was “inactive”. For `CC1CCCC(C)N1C(=O)COC(=O)C1CCN(S(=O)(=O)c2ccc3c(c2)OCCO3)CC1` (stereo unspecified), the Potency was inconclusive [inhibitor, full curve, poor fit]. With `COc1cc(/C=N\NC(C)=O)ccc1OC/C=C/c1ccccc1` the Potency was inconclusive [inhibitor, full curve].
